According to the supplement of paper PMC12217912:
The list shows a part of the results. Sequences were assembled here from the parent chain. Inactive controls read about 0.05.

B1: TEV protease; numbered along this chain (parent)
chain: MGESLFKGPRDYNPISSSICHLTNESDGHTTSLYGIGFGPFIITNKHLFRRNNGTLVVQSLHGVFKVKDTTTLQQHLVDGRDMIIIRMPKDFPPFPQKLKFREPQREERICLVTTNFQTKSMSSMVSDTSCTFPSGDGIFWKHWIQTKDGQCGSPLVSTRDGFIVGIHSASNFTNTNNYFTSVPKNFMELLTNQEAQQWVSGWRLNADSVLWGGHKVFMVKPEEPFQPVKEATQL

Variants of: B1
Experiment: raw area under fraction-flipped curve 0-4 h after induction (AUC4h, not background-subtracted), DNA-recorder readout of cleavage of the substrate (dimensionless); higher = more cleavage of the substrate by the protease variant
Settings: temperature: 34 °C; time window: 0-4 h after rhamnose induction
Procedure: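 In vivo DNA recorder in E. coli TOP10(DE3) ΔrhaA at 34 °C. Each TEVp single-site mutant (parent TEVp 0) is paired with a single-site variant of the 7-mer TEVs (canonical ENLYFQ|S). The substrate sits between flexible linkers in a Bxb1-sfGFP-TEVs-SsrA fusion, so cleavage stabilises Bxb1 and speeds flipping of a recombination array, read by NGS. The value is the raw area under the fraction-flipped curve over 0-4 h after rhamnose induction (AUC4h), with ≥20 reads per time point. It is not background-subtracted; inactive controls average about 0.047.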
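Further: Bxb1 expression induced with 0.2% (w/v) L-rhamnose at OD600 near 0.5, cultures sampled hourly, flipped fraction per protease–substrate barcode pair counted by paired-end Illumina sequencing.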

Variant	area with substrate ENLYFQC	area with substrate ENLYFQD	area with substrate ENLYFQG	area with substrate ENLYFQI	area with substrate ENLYFQL	area with substrate ENLYFQM	area with substrate ENLYFQN	area with substrate ENLYFQP	area with substrate ENLYFQR	area with substrate ENLYFQS
M188R	0.101	0.0535	0.09	0.0613	0.0481	0.0952	0.0598	0.0527	0.0559	0.0952
S154V	0.0986		0.0958	0.0667	0.0669	0.0765	0.0715			0.0957
S154N	0.131									0.13
S154A	0.0995	0.0681	0.0989		0.0512	0.0815	0.0707	0.0677	0.06	0.0904
S154D	0.0709		0.0601			0.0662		0.0559	0.0437	0.0645
G153Q	0.0425			0.0335						0.0434
R109T	0.0995		0.0912				0.0757	0.0509		0.103
T159K	0.104				0.0555	0.0804		0.0696	0.0407	0.0919
T159P	0.104									0.112
S209E	0.123		0.109	0.0489		0.101		0.061		0.109
S209N	0.063		0.0923	0.0571	0.0582		0.0737	0.0571		0.0975
S209A	0.144	0.0653	0.11	0.0554						0.105
T174C	0.0774			0.0602	0.0566					0.0837
T174F	0.0861				0.0458		0.0678		0.0675	0.0883
T174E	0.0965				0.0567					0.0935
E195H	0.117							0.0458		0.102
E195S	0.0893			0.0608			0.0698		0.0627	0.0979
E195T	0.119					0.0664				0.0962
D149I	0.0859	0.0558			0.0506	0.057			0.0385	0.0791
D149P	0.108	0.0429			0.0479					0.0936

Variant	area with substrate ENLYFQC	area with substrate ENLYFQD	area with substrate ENLYFQG	area with substrate ENLYFQI	area with substrate ENLYFQL	area with substrate ENLYFQM	area with substrate ENLYFQN	area with substrate ENLYFQP	area with substrate ENLYFQR	area with substrate ENLYFQS
S201C	0.12	0.0512	0.0951	0.0556	0.0579	0.0864	0.074	0.0719	0.0678	0.0987
S201H	0.0814		0.0559	0.0589		0.0909			0.0399	0.091
N186F	0.115				0.0575		0.103			0.107
N177G	0.0811				0.0502	0.0486				0.0725
N177T	0.173	0.0861	0.147	0.0611	0.0515	0.114	0.124		0.0629	0.156
Q118W	0.114			0.0776		0.0837				0.104
F163Y	0.132	0.0858	0.14	0.0623	0.0711		0.0881		0.0742	0.104
F163K	0.123			0.0612	0.046	0.0734	0.0652			0.0998
D128T	0.168	0.0906	0.157		0.0471			0.0186		0.124
V165I	0.118		0.0661			0.114			0.0542	0.102
T132N	0.0771		0.084			0.0684		0.0624	0.0611	0.0801
T132K	0.0603						0.0662			0.0565
T119G	0.111	0.0756	0.116							0.105
K185A	0.115				0.0766				0.0539	0.106
W212N	0.0835		0.0792	0.0157						0.0844
S171K	0.125				0.0515	0.0396				0.0963
T147V	0.0851	0.0582	0.0962	0.0542					0.067	0.0914
W203S	0.0655	0.0787			0.0941	0.0681			0.0526	0.064
N193Q	0.0882		0.0987	0.0646		0.0733	0.0676		0.0517	0.0901
N193K	0.0926	0.0865	0.0706	0.142			0.082		0.0627	0.0941

Same assay, conditions: temperature: 34 °C; time window: 0-4 h after rhamnose induction

Variant	area with substrate ENLYFQV	area with substrate ENLYFQW	area with substrate ENLYFQH	area with substrate ENLYFQK	area with substrate ENLYFQT	area with substrate ENLYFQF	area with substrate ENLYFQY	area with substrate ENLYFQE	area with substrate ENLYFQQ
M188R	0.0522	0.0584							
S154V	0.0638		0.0652	0.0729	0.07				
S154N					0.0787				
S154A	0.0542			0.0244	0.0564	0.0724			
S154D	0.0499								
G153Q	0.0455				0.0502				
R109T	0.0551	0.061	0.0911	0.0588	0.0702	0.0799	0.0762		
T159K	0.0701			0.0552			0.0799	0.0567	
T159P					0.0652				
S209E			0.0975			0.069	0.0586		
S209N		0.0751		0.0728		0.0771	0.0429		
S209A		0.0774			0.0821				
T174C			0.083	0.0731		0.0853	0.0593		
T174F			0.0999		0.0703		0.0604		
T174E				0.0647					
E195H	0.0509				0.0429				
E195S						0.0614			
E195T					0.0558	0.0578		0.0713	
D149I		0.0404							
D149P					0.0627	0.0629		0.0486	

Variant	area with substrate ENLYFQV	area with substrate ENLYFQW	area with substrate ENLYFQH	area with substrate ENLYFQK	area with substrate ENLYFQT	area with substrate ENLYFQF	area with substrate ENLYFQY	area with substrate ENLYFQE	area with substrate ENLYFQQ
S201C		0.0598	0.0748		0.0594		0.0882		
S201H	0.066	0.0611		0.077	0.0645				
N186F						0.0728			
N177G	0.0323			0.056	0.0659				
N177T		0.0732	0.105	0.0644	0.0773		0.101	0.0709	
Q118W		0.0851		0.0519	0.0623		0.0827	0.057	
F163Y		0.0883		0.0625					
F163K		0.062	0.0724		0.0721	0.0663		0.0689	
D128T	0.0534	0.0642		0.0484					
V165I	0.056				0.0908		0.0776		
T132N			0.0589	0.0656	0.0553	0.0654	0.0787	0.0682	0.0723
T132K		0.0293				0.0576	0.0491		
T119G			0.091						
K185A	0.0615	0.0637			0.0552		0.0788		
S171K	0.0464	0.0674	0.0674						
T147V			0.0716				0.0652		
W203S		0.0529		0.0543			0.0559		
N193Q					0.0549		0.0752		
N193K		0.065				0.0839			
